About 230 (0.21%) of roughly 110,000 compounds showed an effect of 50% or more. The list shows a part of the results.
target: DPAP1 (Plasmodium falciparum, UniProt Q8IIJ9); assay: primary screen, percent inhibition; read by cleavage of a fluorogenic dipeptide substrate; higher = more effect of the substance; design: species or system P. falciparum D10 trophozoite lysates; single well
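Also: 30 min substrate incubation versus DMSO and 10 µM JCP410 controls.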

Chain of DPAP1 (Q8IIJ9 whole entry, looked up): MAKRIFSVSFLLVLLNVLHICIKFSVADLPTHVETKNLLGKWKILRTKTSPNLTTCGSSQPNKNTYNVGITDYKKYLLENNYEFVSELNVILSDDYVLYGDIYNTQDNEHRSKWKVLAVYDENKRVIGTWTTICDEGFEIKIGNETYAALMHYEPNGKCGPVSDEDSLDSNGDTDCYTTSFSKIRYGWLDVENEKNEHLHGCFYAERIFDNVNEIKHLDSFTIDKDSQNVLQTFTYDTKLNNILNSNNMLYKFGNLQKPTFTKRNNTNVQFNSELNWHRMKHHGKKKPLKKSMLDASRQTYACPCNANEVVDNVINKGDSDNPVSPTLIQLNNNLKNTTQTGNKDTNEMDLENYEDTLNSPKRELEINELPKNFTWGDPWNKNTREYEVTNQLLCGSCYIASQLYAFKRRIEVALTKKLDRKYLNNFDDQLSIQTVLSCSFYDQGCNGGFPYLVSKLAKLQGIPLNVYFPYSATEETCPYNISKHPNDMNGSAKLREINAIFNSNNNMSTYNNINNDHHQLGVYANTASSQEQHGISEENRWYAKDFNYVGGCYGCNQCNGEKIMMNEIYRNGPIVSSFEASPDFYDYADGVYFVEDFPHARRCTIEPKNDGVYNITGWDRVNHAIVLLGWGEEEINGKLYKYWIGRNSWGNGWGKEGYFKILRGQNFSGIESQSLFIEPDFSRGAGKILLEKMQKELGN

Compound	% Inhibition @ 10 uM
Brc1cc(CN2CCOCC2)c(-c2ccccc2)s1	3.8%
COc1ccc(C2CC(=O)C3=C(C2)NC(=O)CC3c2cc(OC)c(OC)c(OC)c2)cc1OC (stereo not drawn)	0.205%
CCOC(=O)N1CCC(NS(=O)(=O)c2cc(-c3cc(C)no3)ccc2OC)CC1	0.163%
Cc1cc(=O)n2nc(N3CCC(C(=O)NCc4ccccn4)CC3)sc2n1	4.55%
CCc1cc2c(cc3c(=O)n(CC(=O)N4CCCCCC4)nc(CC)n32)s1	3.29%
Cc1ccccc1CNC(=O)Cn1ncn2cccc2c1=O	-7.87%
CC1CCCC(NC(=O)c2ccc3c(SCC(=O)O)c4c(nc3c2)CCC4)C1C (stereo not drawn)	-0.495%
Cc1cc(C)c(S(=O)(=O)N(C)CC(=O)Nc2ccc(C(F)(F)F)cc2)c(C)c1	-2.29%
COc1ccc(C2CC(c3ccc(C(C)C)cc3)Nc3nnnn32)cc1OC (stereo not drawn)	3.45%
OCCn1c2ccccc2c2cc(Cl)ccc21	0.135%
Nc1nc2ccc(Cc3nc4ccccc4o3)cc2s1	-4.78%
CCOc1ccc(CNCc2c(C(=O)O)n(CC)c3cc(C)ccc23)cc1	11.8%
O=C1c2oc3ccccc3c(=O)c2C(c2ccc(O)cc2)N1c1nncs1 (stereo not drawn)	2.1%
COc1ccc(-n2cccc2/C=C(\C#N)c2nc3ccccc3[nH]2)cc1	-3.06%
CCOc1cc(Cl)c(C(C)NC(=O)c2ccccc2OC)cc1OCC (stereo not drawn)	-1.28%
Cc1cc(OCC(=O)Nc2sc(C)c(C)c2C(N)=O)c(C(C)C)cc1Br	-5.32%
CN(CC(=O)NCC1CCCO1)S(=O)(=O)c1ccc2[nH]c3c(c2c1)CCCC3 (stereo not drawn)	-5.01%
CCC(Sc1nc2nnc(C)c-2c(N)n1-c1ccc(C)c(Cl)c1)C(=O)NCCOC (stereo not drawn)	27.5%
COc1ccc2c(c1)C(=O)/C(=C/c1ccc(C)cc1)CC2	3.63%
COc1cc(C(=O)NC(C)C(=O)N2CCCCC2)nc2ccccc12 (stereo not drawn)	-8.28%
CCNC(=O)C1CCN(S(=O)(=O)c2ccc(C)cc2)CC1	-1.92%
O=C(c1ccc(Cl)c(Cl)c1)N1CCN(c2cccc(Cl)c2)CC1	1.84%
CC1CCCCN1CN1C(=O)C(=O)c2ccccc21 (stereo not drawn)	-1.84%
CN1CCC(N(C)Cc2ccc([N+](=O)[O-])cc2)CC1	-3.65%
O=C1/C(=C/c2ccc(F)cc2)Cc2ccccc21	0.287%
CC(=O)c1cc(-c2ccccc2)n(CC(=O)N2CCN(Cc3ccccc3)CC2)c1C	-0.176%
Cc1ccc(NC(=O)CN2C(=O)S/C(=C\c3ccc(C(=O)O)cc3)C2=O)cc1Cl	-2.39%

Source: paper PMC6919601, “Identification of Plasmodium dipeptidyl aminopeptidase allosteric inhibitors by high throughput screening” (PLoS ONE, 2019)
